{"source": "the supplement of paper PMC3334620", "note": "Whole data set: some 33,000 sequences, median “E-score (-0.5 to 0.5)” near -0.035, cut for the highest 2% near 0.35. The list shows a part of the results."}
{"molecular_target": "T1, Pdr3 (UniProt P33200)", "T1 sequence": "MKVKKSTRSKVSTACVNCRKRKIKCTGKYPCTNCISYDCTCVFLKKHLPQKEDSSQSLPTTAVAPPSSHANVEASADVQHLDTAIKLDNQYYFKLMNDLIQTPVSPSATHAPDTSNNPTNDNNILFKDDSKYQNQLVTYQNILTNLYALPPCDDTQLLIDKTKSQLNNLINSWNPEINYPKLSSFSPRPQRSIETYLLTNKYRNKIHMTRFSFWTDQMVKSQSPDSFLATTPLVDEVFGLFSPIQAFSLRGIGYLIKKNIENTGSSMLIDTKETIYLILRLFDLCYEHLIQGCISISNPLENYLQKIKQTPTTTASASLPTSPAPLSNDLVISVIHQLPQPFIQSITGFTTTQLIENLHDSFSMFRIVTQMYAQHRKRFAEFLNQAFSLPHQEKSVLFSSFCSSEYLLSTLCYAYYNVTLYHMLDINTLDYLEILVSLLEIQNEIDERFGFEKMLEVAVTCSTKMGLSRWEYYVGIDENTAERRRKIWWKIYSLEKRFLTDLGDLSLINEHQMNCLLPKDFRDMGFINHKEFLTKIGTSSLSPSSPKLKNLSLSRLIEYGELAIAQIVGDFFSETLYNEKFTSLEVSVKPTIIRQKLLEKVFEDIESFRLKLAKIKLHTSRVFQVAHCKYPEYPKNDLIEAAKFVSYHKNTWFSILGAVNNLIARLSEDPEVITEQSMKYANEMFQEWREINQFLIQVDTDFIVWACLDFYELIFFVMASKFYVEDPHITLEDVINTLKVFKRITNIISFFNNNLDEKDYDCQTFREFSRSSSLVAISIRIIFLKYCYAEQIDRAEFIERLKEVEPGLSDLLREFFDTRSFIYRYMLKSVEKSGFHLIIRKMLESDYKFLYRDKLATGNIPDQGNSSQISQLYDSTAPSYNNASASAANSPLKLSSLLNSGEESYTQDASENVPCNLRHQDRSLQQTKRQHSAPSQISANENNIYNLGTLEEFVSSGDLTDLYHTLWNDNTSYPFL", "assay": "PBM E-score (8-mer binding enrichment) (E-score (-0.5 to 0.5)); higher = stronger / more preferred TF binding; most listed sequences are background and not binding sites", "conditions": "protein concentration: 200 nM; construct: GST-full length", "method_in_brief": "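Yeast transcription factors carrying a GST tag, as full-length proteins or DNA-binding domains, were produced by PURExpress in vitro transcription/translation. About 100-200 nM protein was applied to universal all-10-mer Agilent arrays, double-stranded by primer extension on fresh or once-stripped slides. Bound protein was detected with fluorescent anti-GST, and scans were normalised with masliner. The Universal PBM Analysis Suite gave each ungapped eight-base word, pooled with its reverse complement, an E-score, a modified Wilcoxon-Mann-Whitney statistic.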"}
{"sequence": "AGCCGTGA", "PBM E-score": 0.0664}
{"sequence": "ACAGTTAA", "PBM E-score": -0.0121}
{"sequence": "ATCCAGAC", "PBM E-score": 0.216}
{"sequence": "GCACCAAA", "PBM E-score": -0.0138}
{"sequence": "CTTAGTAC", "PBM E-score": -0.107}
{"sequence": "AGAGGTGA", "PBM E-score": -0.145}
{"sequence": "AGTTAATC", "PBM E-score": -0.171}
{"sequence": "AGTCAACG", "PBM E-score": -0.214}
{"sequence": "ATGGAACG", "PBM E-score": 0.0401}
{"sequence": "GAAAACAC", "PBM E-score": 0.112}
{"sequence": "GTGTTCCA", "PBM E-score": 0.0333}
{"sequence": "CCAAGTTC", "PBM E-score": 0.125}
{"sequence": "CGGCCCTA", "PBM E-score": 0.0923}
{"sequence": "GCACCAGC", "PBM E-score": -0.204}
{"sequence": "GTAAACTA", "PBM E-score": -0.0316}
{"sequence": "GCCGCTCA", "PBM E-score": 0.00683}
{"sequence": "ACGGGAGG", "PBM E-score": 0.171}
{"sequence": "CAACGAAA", "PBM E-score": 0.0219}
{"sequence": "GTTAATCA", "PBM E-score": -0.0162}
{"sequence": "ATTAGGAC", "PBM E-score": -0.269}
{"sequence": "TCTTACAA", "PBM E-score": -0.178}
{"sequence": "ATCGCATG", "PBM E-score": -0.139}
{"sequence": "AAGATACT", "PBM E-score": -0.0106}
{"sequence": "AATGTGGC", "PBM E-score": 0.0757}
{"sequence": "ACCCTCAG", "PBM E-score": -0.123}
{"sequence": "GCGAGCGA", "PBM E-score": 0.0818}
{"sequence": "CGTATAAG", "PBM E-score": 0.0134}
{"sequence": "ATCTGACG", "PBM E-score": -0.0524}
{"sequence": "ACGACAGC", "PBM E-score": -0.103}
{"sequence": "AATAGATT", "PBM E-score": 0.041}
{"sequence": "CGATTAAG", "PBM E-score": -0.114}
{"sequence": "CACCCTAG", "PBM E-score": -0.011}
{"sequence": "ATAATGTG", "PBM E-score": -0.0655}
{"sequence": "CATTATCG", "PBM E-score": -0.0579}
{"sequence": "ATCGGTCA", "PBM E-score": -0.0945}
{"sequence": "GACGGTTA", "PBM E-score": -0.183}
{"sequence": "GAATAATA", "PBM E-score": 0.0876}
{"sequence": "ACAAGGAT", "PBM E-score": -0.0898}
{"sequence": "CTACGTAC", "PBM E-score": -0.13}
{"sequence": "ACGGAACC", "PBM E-score": 0.487}
{"sequence": "CTGGTGAA", "PBM E-score": -0.171}
{"sequence": "CGTCCCCA", "PBM E-score": -0.0149}
{"sequence": "GGATTTGA", "PBM E-score": -0.0356}
{"sequence": "CTCTGCAC", "PBM E-score": -0.0549}
{"sequence": "AAAGCACT", "PBM E-score": 0.0582}
{"sequence": "AATACGCC", "PBM E-score": 0.0735}
{"sequence": "CCGCTATC", "PBM E-score": 0.211}
{"sequence": "AAAGCGAC", "PBM E-score": -0.0306}
{"sequence": "ATAAAAAG", "PBM E-score": 0.0401}
{"sequence": "GGGAATAA", "PBM E-score": 0.199}
{"sequence": "CCATCGCC", "PBM E-score": 0.00589}
{"sequence": "CACGGTGC", "PBM E-score": -0.0844}
{"sequence": "ACGGGGGA", "PBM E-score": 0.134}
{"sequence": "ACGACCCG", "PBM E-score": 0.248}
{"sequence": "CCTATACA", "PBM E-score": -0.206}
{"sequence": "ACTTAATC", "PBM E-score": -0.12}
{"sequence": "ACGATTGC", "PBM E-score": 0.0997}
{"sequence": "GTCACCTA", "PBM E-score": -0.389}
{"sequence": "GTCAGTCA", "PBM E-score": -0.0728}
{"sequence": "CTGTATAC", "PBM E-score": -0.0785}
{"sequence": "GTACAGCA", "PBM E-score": -0.128}
{"sequence": "ATACACAT", "PBM E-score": -0.162}
{"sequence": "ACAGATAC", "PBM E-score": -0.00099}
{"sequence": "AGGTTTTC", "PBM E-score": -0.0856}
{"sequence": "AGCCTAGG", "PBM E-score": -0.112}
{"sequence": "AATTCGGT", "PBM E-score": 0.141}
{"sequence": "ACCTTAAA", "PBM E-score": -0.0358}
{"sequence": "GGCATCAC", "PBM E-score": -0.109}
{"sequence": "GGTATCAC", "PBM E-score": 0.0398}
{"sequence": "ATGGTCAA", "PBM E-score": -0.123}
{"sequence": "CGCAGACA", "PBM E-score": 0.117}
{"sequence": "CATAGTGA", "PBM E-score": -0.186}
{"sequence": "CATCCCAG", "PBM E-score": -0.106}
{"sequence": "ATATTCCA", "PBM E-score": 0.128}
{"sequence": "CATATACA", "PBM E-score": 0.0577}
{"sequence": "CTAGGTAC", "PBM E-score": -0.0628}
{"sequence": "ACCGAGCT", "PBM E-score": 0.124}
{"sequence": "GGATGCCC", "PBM E-score": 0.0356}
{"sequence": "GCGCTGAC", "PBM E-score": 0.117}
{"sequence": "CTGCACCC", "PBM E-score": 0.0546}
{"sequence": "ATGACGGC", "PBM E-score": 0.141}
{"sequence": "CGAGGAAA", "PBM E-score": 0.167}
{"sequence": "CTATTTTC", "PBM E-score": 0.118}
{"sequence": "AGATATGC", "PBM E-score": 0.0975}
{"sequence": "AAGCGTCC", "PBM E-score": -0.0745}
{"sequence": "CAGCAGAG", "PBM E-score": -0.131}
